# In all, about 110,000 compounds went through this assay and about 230 (0.21%) showed an effect of 50% or more. Some of the results follow.
# Biological target: DPAP1 (Plasmodium falciparum, UniProt Q8IIJ9)
# Assay: primary screen, percent inhibition; read by cleavage of a fluorogenic dipeptide substrate; higher = more effect of the substance
# Design: species or system P. falciparum D10 trophozoite lysates; single well
# 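Also: 30 min substrate incubation versus DMSO and 10 µM JCP410 controls.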
# Chain of DPAP1 (Q8IIJ9 whole entry, looked up): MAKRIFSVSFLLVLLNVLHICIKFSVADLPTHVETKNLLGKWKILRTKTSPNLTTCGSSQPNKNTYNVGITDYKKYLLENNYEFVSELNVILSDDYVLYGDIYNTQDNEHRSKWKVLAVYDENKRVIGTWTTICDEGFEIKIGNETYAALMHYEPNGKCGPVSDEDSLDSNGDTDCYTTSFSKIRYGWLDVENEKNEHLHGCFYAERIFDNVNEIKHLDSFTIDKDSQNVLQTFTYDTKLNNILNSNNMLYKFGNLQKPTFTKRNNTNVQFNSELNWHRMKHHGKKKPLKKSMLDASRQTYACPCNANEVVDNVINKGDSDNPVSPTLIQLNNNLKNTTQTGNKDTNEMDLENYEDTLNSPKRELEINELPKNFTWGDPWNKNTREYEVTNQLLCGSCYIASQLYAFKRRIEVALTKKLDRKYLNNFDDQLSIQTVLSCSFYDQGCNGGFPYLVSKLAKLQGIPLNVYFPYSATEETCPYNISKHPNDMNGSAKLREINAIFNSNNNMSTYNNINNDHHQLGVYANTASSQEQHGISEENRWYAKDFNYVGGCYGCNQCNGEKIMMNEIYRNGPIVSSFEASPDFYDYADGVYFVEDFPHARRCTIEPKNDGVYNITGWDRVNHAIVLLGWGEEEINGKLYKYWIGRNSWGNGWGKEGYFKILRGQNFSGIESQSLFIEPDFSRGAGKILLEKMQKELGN
row,Compound,% Inhibition @ 10 uM
1,O=C(c1ccccc1)c1ccc(NC(=O)c2cccs2)cc1,5.92%
2,CCCCSCCCNC(=O)CCCN1C(=O)c2ccccc2Sc2ncccc21,-4.16%
3,CCOc1ccc(NC(=O)NC2CCCCC2)cc1,-3.94%
4,COc1ccc(CCNCc2c(C(=O)O)n(Cc3cccc(Cl)c3)c3ccccc23)cc1OC,5.09%
5,CSc1nc2nc(C(F)F)cc(-c3ccccc3)n2n1,9.3%
6,CCCCCCSc1nnc(NC(=O)c2ccc(C(=O)OCC)cc2)s1,5.37%
7,CCOc1ccc2cc(C(=O)C3CCCCC3)ccc2c1,0.162%
8,CCC(C)NS(=O)(=O)c1cccs1 (stereo not shown),-5.52%
9,CCCSCCCNCc1c(C(=O)O)c(C)n(Cc2ccccc2)c1C,-5.49%
10,CN(C)/C=C1/N=C2C=C(c3ccccc3)c3cc(Cl)ccc3N2C1=O,-2.29%
11,COC(=O)c1c(-n2cccc2)sc2c1CCCC2,-0.256%
12,O=C(Nc1nc2ccccc2s1)c1cccn(OCc2cccc(Cl)c2)c1=O,1.72%
13,CCOC(=O)C1=C(C)N=c2s/c(=C\c3c(F)cccc3Cl)c(=O)n2C1c1ccccc1 (stereo not shown),1.84%
14,Cc1nc2ccc(NC(=O)N3CCOCC3)cc2s1,1.25%
15,Cc1nc(N2C(=O)c3oc4ccccc4c(=O)c3C2c2ccco2)sc1C (stereo not shown),-5.11%
16,CCOc1ccc(-c2cc(NC(=O)Cn3ncc4c5ccccc5nc-4c3O)on2)cc1,0.721%
17,Cc1cc2oc3c(c(=O)c2cc1C)C(c1ccc(O)cc1)N(c1ccccn1)C3=O (stereo not shown),6.82%
18,Cc1ccc(C(=O)N2CCc3ccccc32)cc1[N+](=O)[O-],-4.4%
19,CC1(C)CC2CC(C)(CN2C(=O)C2CC(c3ccccc3F)=NO2)C1 (stereo not shown),-5.79%
20,CCOc1cc(/C=C2/NC(=O)NC2=O)cc(Cl)c1OC(C)CC (stereo not shown),1.52%
21,CC(C)(C)c1ccc(-c2nnc3sc(-c4ccc5c(c4)OCCO5)nn23)cc1,4.96%
22,COC(=O)C1=C(C(C)=O)C(c2ccccc2OC)n2nnnc2N1 (stereo not shown),0.565%
23,CCCCc1[nH]nc2c1C(c1c[nH]c3ccccc13)C(C#N)=C(N)O2 (stereo not shown),-4.61%
24,COc1ccc(Cn2c(SCc3ccc(C(=O)N4CCCC4)cc3)nc3cccnc32)cc1,3.46%
25,CCc1sc(NC(=O)c2cc3ccccc3oc2=O)nc1-c1cccs1,2.44%

row,Compound,% Inhibition @ 10 uM
1,CCOc1ccc(Br)cc1/C=C/c1[nH]c(=O)[nH]c(=O)c1[N+](=O)[O-],0.98%
2,CC(=O)c1cccc(NC(=O)c2cc(NC(=O)c3ccccc3)cc(NC(=O)c3ccccc3)c2)c1,-0.693%
3,Cc1c(C(=O)O)c(C)n(C)c1-c1ccccc1,-5.21%
4,COc1ccc(N(CC(=O)N2CCCCCC2)S(=O)(=O)c2ccccc2)cc1OC,1.47%
5,COc1ccccc1-n1c(S)nnc1C12CC3CC(CC(C3)C1)C2,-0.0626%
6,O=C(O)C1CC=CCC1C(=O)Nc1ccc(Cc2ccncc2)cc1 (stereo not shown),-4.89%
7,COc1ccc(CC(=O)N2N=C(C)CC2(O)c2ccncc2)cc1 (stereo not shown),-1.36%
8,N#Cc1ccc(NC(=O)C2c3ccccc3Oc3ccccc32)cc1Cl,5.05%
9,CSc1nsc(NC(=O)OCc2ccc(Cl)cc2)n1,-5.72%
10,Cc1ccc2cc(C)c(NCCO)nc2c1,5%
11,Nc1[nH]ncc1-c1ccc(-c2ccccc2)cc1,-6.67%
12,CCN1CCN(c2nn3c(=O)c4c5c(sc4nc3c3ccccc23)CCCC5)CC1,9.09%
13,COc1cc(C2Nc3ccccc3N=C3CC(c4cccs4)CC(O)=C32)cc(OC)c1O (stereo not shown),-2.77%
14,CS(=O)(=O)N(CC(=O)N1CCN(c2ccccc2F)CC1)C1CCCCC1,-2.74%
15,CC(C)(C)c1ccc(-c2nc(-c3nonc3N)no2)cc1,-2.68%
16,O=C(COc1ccc(Cl)cc1Cl)Nc1cccc(C(F)(F)F)c1,-5.62%
17,CCN(CC)c1ccc(/C=C2\C(=O)N(c3nnc(C)c(O)n3)N=C2C)cc1,3.61%
18,COCCCNc1ncnc2c1cnn2C,3.65%
19,CCc1ccc(CNC(=O)CCC(=O)N2CCSc3ncccc32)cc1,0.687%
20,O=C(c1ccc2ccccc2c1)N1CCCC1,0.215%
21,O=C(O)CCNC(=O)/C(=C/c1ccccc1)NC(=O)c1ccco1,-1.52%
22,O=C1ON=C(c2ccccc2)/C1=C/c1ccc(O)c(O)c1,0.222%
23,O=C(NCc1cccs1)C1CCN(S(=O)(=O)N2CCC3(CC2)OCCO3)CC1,3.79%
24,CC1=C(C(=O)c2ccccc2)C(NC(=O)c2ccc(F)cc2)(C(F)(F)F)C(=O)N1Cc1ccccc1 (stereo not shown),-2.63%
25,CCCN1C(C(=O)c2ccccc2)=C(OC(=O)c2ccccc2Cl)c2ccccc2S1(=O)=O,-2.99%

row,Compound,% Inhibition @ 10 uM
1,COc1cccc(C(=O)Nc2nnc(CCS(=O)(=O)c3ccc4ccccc4c3)s2)c1,4.54%
2,CC(=O)c1ccc(N2CCN(Cc3sccc3C)CC2)cc1,-1.48%
3,CCc1sc(NC(=O)CCC(=O)O)nc1-c1cc2ccccc2oc1=O,3.7%
4,O=C(O)/C=C/C(=O)Nc1cccc2c(NC(=O)/C=C/C(=O)O)cccc12,5.53%
5,CC1CN(C)CC(C)(C)C1(O)c1ccccc1 (stereo not shown),4.54%
6,C=CCNC(=O)/C(C#N)=C/c1c(Oc2ccccc2)nc2c(C)cccn2c1=O,2%
7,COc1cc(/C=C2\C(=O)ON=C2C)cc(OC)c1OC,1.58%
8,CCn1c(C(C)NC(=O)c2ccccc2)nc2ccccc21 (stereo not shown),17%
9,COc1ccc(Br)cc1C1C2=C(O)CC(C)(C)CC2=Nc2nc(SC)nn21 (stereo not shown),-3.37%
10,c1nc2cc(Cc3ccc4[nH]cnc4c3)ccc2[nH]1,0.628%
11,O=C(Nc1cccc(C(F)(F)F)c1)NC1(c2ccccc2)CC1,1.93%
12,COc1ccc(-c2nc(CS(=O)(=O)CC(=O)NCCN(C)C)c(C)o2)cc1,-0.138%
13,COc1ccc(-c2nn(CCC(=O)NCc3cccs3)c3nc(C)cc(C)c23)c(OC)c1,2.39%
14,O=C1NN=C(c2ccccc2)CC1c1c[nH]c2ccccc12 (stereo not shown),-3.62%
15,CCOCCCNC(=O)Cn1cnc2onc(C)c2c1=O,-1.79%
16,CC(C)CNC(=O)c1ccc(C(=O)NCC(C)C)cc1,1.64%
17,c1ccc(C2=NN(c3ccccc3)N(c3ccccc3)N2)cc1,-0.744%
18,CCn1c2ccccc2c2cc(CNc3ccccc3C)ccc21,-10.6%
19,Cc1ccc(S(=O)(=O)NCc2ccc(C(=O)N3CCN(c4ncccn4)CC3)cc2)cc1,0.718%
20,O=C(NCc1ccccc1)/C(=C/c1cc(-c2ccccc2)nn1-c1ccccc1)NC(=O)c1ccccc1,-5.38%
21,COc1ccc2cc3c(N)nn(C(=O)c4ccco4)c3nc2c1,2.19%
22,COc1ccc2c(c1)nc(CN1CCOCC1)n2C,0.883%
23,COc1ccccc1-c1cc(C(=O)Nc2cccnc2)no1,1.37%
24,Cc1noc(/C=C/c2cccs2)c1S(=O)(=O)N1CCC(C(=O)NCc2ccc(F)cc2)CC1,-1.28%
25,Cc1ccc(-c2cc(C(F)(F)F)n3nc(C(=O)NCc4cnn(C)c4C)cc3n2)cc1,-8.23%

row,Compound,% Inhibition @ 10 uM
1,N#C/C(=C/C=C/c1ccccc1)c1nc(-c2ccc(Br)cc2)cs1,3.53%
2,CC1CC2=C(CC1COC(=O)Nc1ccccc1)C(C)(C)CCC2 (stereo not shown),2.26%
3,O=C(NCCO)C1CCN(S(=O)(=O)c2ccccc2)CC1,0.147%
4,CCOc1ccc(CCNCc2c(C(=O)O)c(C)n(Cc3cccc(Cl)c3)c2C)cc1OCC,2.99%
5,Cc1ccc(-n2nnc(-c3nsc(NC(=O)c4cccs4)n3)c2C)cc1Cl,-0.127%
6,O=C(O)C1CSC2(CCCCC2)N1 (stereo not shown),6.4%
7,c1ccc2cc(OCCCCn3ccnc3)ccc2c1,-3.15%
8,COc1ccc(C2=NC3(CCN(S(=O)(=O)c4ccc(F)cc4)CC3)N=C2SC)cc1,-2.5%
9,CC(=O)Nc1nc(C)c(-c2csc(NCc3ccccc3)n2)s1,6.27%
10,Cc1cc(Cl)ccc1OCCCCCN1CCNCC1,-7.5%
11,CN1CCN(CC(O)c2ccccc2)CC1 (stereo not shown),-0.436%
12,CC1=CC(C)(C)N(C(=O)CN2C(=O)c3ccccc3C2=O)c2cc(C)ccc21,-14.6%
13,Fc1cccc(CSc2nc3cccnc3[nH]2)c1,0.693%
14,CC(C)Oc1ccccc1C1CC(=O)Nc2cc3c(cc21)OCO3 (stereo not shown),-1.28%
15,CCCN1C(=O)C(O)(CC(=O)c2ccc3ccccc3c2)c2cc(Br)ccc21 (stereo not shown),5.07%
16,O=C(C1CC(c2ccc(F)cc2)=NO1)N1CCN(C(c2ccccc2)c2ccccc2)CC1 (stereo not shown),-0.431%
17,COc1ccc(-n2nc3c(c2NC(=O)c2c(F)cccc2F)CS(=O)(=O)C3)cc1,-0.0419%
18,CCC(Sc1nc2cccnc2[nH]1)C(=O)NCCc1ccccc1 (stereo not shown),-0.35%
19,COCCCN1C(=O)C(O)=C(C(=O)c2ccccc2)C1c1cc(OC)ccc1OC (stereo not shown),-0.178%
20,CCN1CC2=C(OC(N)=C(C#N)C2c2cccc(C)c2)/C(=C/c2cccc(C)c2)C1 (stereo not shown),-2.46%
21,Cc1cc(C)c2oc(-c3cccc(N)c3)nc2c1,-1.22%
22,COc1cccc(N2C(=O)C3C(c4ccc(C)cc4)OC4(C(=O)c5ccccc5C4=O)C3C2=O)c1 (stereo not shown),-1.48%
23,Cc1ccc(N(CC(=O)Nc2cccnc2)S(C)(=O)=O)c(C)c1,2.4%
24,Cc1ccc(-c2cc3nc(-c4ccccc4)cc(C)n3n2)cc1,-0.597%
25,O=c1oc2ccccc2cc1NCc1ccccc1O,1.62%

# Source: article PMC6919601, “Identification of Plasmodium dipeptidyl aminopeptidase allosteric inhibitors by high throughput screening” (PLoS ONE, 2019)
